The record followed here is the supplement of paper PMC11417369.

Some of the results follow.

In this assay the test system is PfSIP2 AP2 domain 1 (GST-tagged). Nature of the assay: gcPBM binding intensity (ln(normalized median fluorescence intensity)); higher = stronger DNA binding. Put shortly: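 An Agilent 4 × 180k array carrying primer-extended double-stranded 36-bp intergenic genomic probes and negative controls received GST-tagged P. falciparum DNA-binding domains expressed in E. coli, about 25 μg on average, for 1 h. The binding buffer contained 1× PBS, 1% milk, 0.2 mg/ml BSA, 0.5% salmon testes DNA and 0.03% Triton X-100. Binding intensity is the top Masliner-normalised natural-log median intensity across replicate spots of either probe orientation, read after Alexa488 anti-GST antibody staining and a 488 nm scan.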
Take “GATTATTTTAGAAGTACACACATTTATATATAATAA [CACACA_site5429]”: the “gcPBM binding intensity (ln)” value came to 7.38.
As for “TAAAATATAATGATCACACATATAAACAAGTGGGTA [CACACA_site4651]”, the “gcPBM binding intensity (ln)” value was 6.86.
Then “GCCGCACCCAGATACGCACACAAGAAAAAAATATTC [CACACA_site3456]”, with 11.1; and “TATGGATAAATAAATACACACATAAATTTAAATATA [CACACA_site1282]”, with 6.94; and “TATAAACGCACCTACACACACAACGTAAATGCATTG [CACACA_site7120]”, with 10.6.
On to “TGAACATTATAGAAAAGTACTTAGTTTTTAAAAAGA [XGTACX_site6864]”, for which the “gcPBM binding intensity (ln)” value stood at 7.
The figure for “TATTCAAAACGGTATTGTACAAATTTTATAATTTAA [XGTACX_site6928]” is 6.78.
Then AATTTAATTGTGAGAGTGCGTACTGCTCCACATATA, with 7.67; and “TATATATATAAATACACACACACAAAAAAAAAAAAA [CACACA_site4930]”, with 7.74; and “ATGTGTTTGTATATATGTACATATTTATGTTATTTC [XGTACX_site6960]”, with 7.42.
Then “AAAAAAAAAAAAAAAAAAAAAAAAAAATGAGATACA [GTGCAC_negctrl_site160]”, with 8.62.
Consider “TTTTGATATATGAATATTAAGTTATATAATATTTTA [TGCATGCA_negctrl_site39]”, for which the “gcPBM binding intensity (ln)” value is 6.66.
The figure for “AAAAGGATATATGAAAGTACAAAGGTATAGTATATT [XGTACX_site7385]” is 7.06; for “TACAGTAAAAATAGTTGTACTTGTTTATTTCTTCTT [XGTACX_site7674]” it is 6.8.
The figure for “ATCTTATCATTTTAAAGTACATAATTAATTCTTTTT [XGTACX_site3999]” is 7.27; for “TATAACAAATAAAAATGTACATATATATAATATATA [XGTACX_site6173]” it is 7.31.
Then “ATAATACCAGAATAGATTTAAATGAATATTTTATTT [CACACA_negctrl_site476]”, with 6.75; and “ATGATATATTTAATAGTGCACTAATTAAAATTATTA [GTGCAC_site9418]”, with 11; and TAGTTAGCCCAAGGGGTGCTAATTACTATCTAAATA, with 9.4.
As for “CATACATATAAACACACACACACACCCACCCACAAA [CACACA_site8059]”, the “gcPBM binding intensity (ln)” value is 7.18.
Then “AACACCAATTCATATGCACACACATCTGCATATTAT [CACACA_site8523]”, with 7.29.
As to “TTTATAAATATTCTCACACACTTTTTATTTTAACAA [CACACA_site6454]”, the “gcPBM binding intensity (ln)” value stood at 6.93.
Then “TATAGAAGCAAATTATGTACACAATATGGAAAATCA [XGTACX_site3345]”, with 7.14.
Then “GTCGAGGATATATAAAGTACATATATATATATGATA [XGTACX_site1128]”, with 7.2; and “TAATGTATCTAAAATTGTACAAATATAAATATAAAT [XGTACX_site2764]”, with 7.04.
The figure for “CACTAAATAAGGAAAGTGCATAAAATAAAGGTTATA [GTGCAC_site9793]” is 8.18; for “TAGTTACCTTAATATTGTACTTTTCTTTCATATATG [XGTACX_site1309]” it is 7.02; for “GTGTCAAATTTTATAACACACAAAAGGTTATATAAG [CACACA_site7839]” it is 6.93.
In the case of “ATAGTTTCTGGTAGCTGTACGAGTCGTAGAGTGCAG [XGTACX_site2022]”, the “gcPBM binding intensity (ln)” value was found to be 8.33.
The figure for “TACAGTTTTTCTTTGAATTTATCAAGTTTTTTTCCC [XGTACX_negctrl_site60]” is 6.71; for “ATTTAAAAAATATATTGTACATATTTTATTATGTTT [XGTACX_site2984]” it is 6.85.
Then “AAAAAAAAATTGTGTACACATAATTATATCATATGT [CACACA_site4500]”, with 7.01.
Then “ATGGATAATAAGTTTACACACAAAAAAAAAGAAAAA [CACACA_site861]”, with 6.9.
As to “ATAAGAATCATATTTAAACACACATACATATATATA [CACACA_site9106]”, the “gcPBM binding intensity (ln)” value was 7.5.
For “ATTAAATAAACCATTACACACTTTTATGTTTTGAAA [CACACA_site1143]”, the “gcPBM binding intensity (ln)” value was determined as 7.01.
Then “TTTTTATTGGTGAATACACACGTATATATATATTAT [CACACA_site8756]”, with 7.17.
Then “AAAAAAAAAAAATACACACACATAAAAAAAAAAATA [CACACA_site1858]”, with 7.15.
For “ATTATATTAACAATGACATGCAATTCTTAATCCTTA [TGCATGCA_site648]”, the “gcPBM binding intensity (ln)” value was 6.88.
The figure for “CACAAACAAAAACACACACACACACCGACAAAAATG [CACACA_site5362]” is 7.03; for “AGAAAGAAGATATATACACACAAAAAAAGATATATA [CACACA_site6779]” it is 6.89; for “AAAAGAAGATAATACAGTACAGAATAATATAAAATA [XGTACX_site5962]” it is 6.91.
Then “TATAAATATTTATACACACACACATTAATACCTATA [CACACA_site7604]”, with 7.19.
The figure for “TTCTTTCTAGAATATTGTACATATATTGTTATTATA [XGTACX_site8425]” is 7.11.
For “AAATAAAATAAATAATATAAAATAATATATAAAAAA [CACACA_negctrl_site1777]”, the “gcPBM binding intensity (ln)” value was determined as 6.67.
Then “TTTTGTTAAAAAGATGTATATTTTATAAATATTTAT [CACACA_negctrl_site101]”, with 6.81; and “TAAAGAGAGACATCAACACACATACGTATGTATAGA [CACACA_site4896]”, with 6.72.
As to “AATATATTGTTTCCTGATATTAAATTCAATTTAATG [GTGCAC_negctrl_site22]”, the “gcPBM binding intensity (ln)” value came to 6.91.
Then “ATTTACCTATATATTTGTACTTACATAATGCTACCT [XGTACX_site2693]”, with 7.09; and “TAAAAAAAAATATATAAACACACATATTTATATACA [CACACA_site8469]”, with 6.68; and “CCAATGTTTTCTTGTGTACACATCATTAAAGAAAAA [CACACA_site5300]”, with 7.96.
“ATTCTATATGAAAAATGTACAAATAAAAATTCTAAG [XGTACX_site8900]”: the “gcPBM binding intensity (ln)” value was 7.03.
As for “CACGCATACAGACACACACACACACCGATATATATA [CACACA_site8113]”, the “gcPBM binding intensity (ln)” value came to 7.36.
Consider “CATGAAAATATTATGTGTACTTAATGCACATTCAAA [XGTACX_site1952]”, for which the “gcPBM binding intensity (ln)” value turned out to be 7.35.
The figure for “AAAAAAAAACAAAAAAGTACAAAATAAAAATACGTT [XGTACX_site4566]” is 6.97.
The figure for “CTCTTCATATATAATTGTACACACAAAAACGACATT [XGTACX_site4287]” is 7.73.
Then “TATATATATTTTGGCTGTACATCAGCGTATATTTTT [XGTACX_site3233]”, with 6.98.
In the case of “AATAAATATATACATTGTACATATATAATATATATA [XGTACX_site1458]”, the “gcPBM binding intensity (ln)” value is 7.44.
The figure for “TAAATTATAATATGCACACAAAATGTTATATTAAAA [CACACA_site376]” is 7.01; for “CCTATCCATGCATATACACACATATCTATTTATATA [CACACA_site6886]” it is 7.8; for “TACAAATATATATGCACACACATATACATACAGATA [CACACA_site5238]” it is 7.27.
The figure for “CATATATACGCATACACACACACACCCACACCCACA [CACACA_site1725]” is 7.35.
The figure for “TGATGAAAATCTACATGAATGTTTTTATATCTATAT [GTGCAC_negctrl_site139]” is 6.73; for “TATTTATACCTATACACACACACACGGATATTTATA [CACACA_site7123]” it is 7.01.
For “GATAAAATCACTGGTGCATGTAGATATATAATATTA [TGCATGCA_site589]”, the “gcPBM binding intensity (ln)” value was found to be 10.5.
Turning to “ATATGCTTATTGTAAAGTACATTATTATTTTTCCTA [XGTACX_site5479]”, the “gcPBM binding intensity (ln)” value is 6.83.
Then “AATTAACAAAAACACACACACACACCGACAAAAAAA [CACACA_site4444]”, with 7.3; and “ATGAATAAATAAGACACACACGAAAATAAGTAAAAA [CACACA_site4216]”, with 7.09.
The figure for “TATTTTGATTATTCAGTGTATAAATATATATATATA [CACACA_negctrl_site545]” is 8.66; for “AACAGGTCATAATTTACACACTATATATTTTATTAT [CACACA_site670]” it is 7.02; for “AGAAAACATATGTTTTGTACTTAAGAAAAAAAAAAA [XGTACX_site4231]” it is 6.88.
Then “TAACATATGGGACACACATGCAACTGTTATATGTCC [TGCATGCA_site959]”, with 6.82; and “ATCTATATTCATAATACACACATTCTGTAGCATTAT [CACACA_site7058]”, with 7.03; and “TGATTAATTTTTAAATGTACTTAAAAATATACTTAT [XGTACX_site2872]”, with 7.09.
Regarding “TATATCATATAAAACCGTACATACATACTTAATTGT [XGTACX_site6822]”, the “gcPBM binding intensity (ln)” value amounted to 7.06.
Then “AAAAATAAATAAATATGTACATATATACATATATAT [XGTACX_site5892]”, with 7.16; and “AAAAAAAAATTAAAATGTACACATAAAAAAAAAAAA [XGTACX_site794]”, with 6.91.
Then “TTTTATATGTTATATACACACATATAAATAAATATA [CACACA_site7418]”, with 6.92; and “TCCTTATTTCATATTTTTAAATAATACAAAAAAAAA [CACACA_negctrl_site773]”, with 7.14; and “ATATATATTTATAATCGTACGTACCTAACAATACAA [XGTACX_site4510]”, with 7.33.
On to “AAATAAAAAAAAGCCTGTACATGTTCATAAATTTTT [XGTACX_site7925]”, for which the “gcPBM binding intensity (ln)” value worked out at 6.81.
The figure for “GAATATTAAATATTATCACACACATAATTATTTCCA [CACACA_site8730]” is 7.03; for “TTCTATTTATATGTGGGTACTAATTTTTTTTCTTTT [XGTACX_site7104]” it is 6.99.
On to “CTTAAATTAATTTGGGTGCATATATTTGTACACATT [GTGCAC_site9948]”, for which the “gcPBM binding intensity (ln)” value is 10.9.
Then “TTAATTTTTTTTTAAACACACATTTTTTTATTTAAG [CACACA_site2738]”, with 6.73; and “TGAATAAAATATTATACACACATATGTATATAACAT [CACACA_site974]”, with 6.85.
Regarding “TATTAATTTTTTTTTTTTTTTTTTTTTTTTTTTTTT [CACACA_negctrl_site1329]”, the “gcPBM binding intensity (ln)” value came out at 8.76.
Then “GTTATAAATAATAAATAAATAATCAAATGAAGAATG [CACACA_negctrl_site653]”, with 7.17.
Turning to “AGGAGGATAGTTCACAGTACCCAGGAAATCTGCGGA [XGTACX_site4928]”, the “gcPBM binding intensity (ln)” value came out at 6.61.
